The other results are listed elsewhere or left out. These are further read-outs of the screen, such as a control signal, another cell line or another target. No call is given for them.
How the values were obtained:
Assay in all cases: Primary Screen for Target Class Profiling of Small Molecule Inhibitors of Methyltransferases
[1] = target: Glycine N-methyltransferase (Homo sapiens) (UniProt Q14749); conditions: purified enzyme, MTase-Glo SAH luminescence; measured here: GNMT inhibition; at 40 µM; stronger effect = lower value
In short: (§1)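 Each enzyme was assayed with SAM and its substrate. SAH formation detected by MTase-Glo luminescence; single-point 40 uM screen[…].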

[2] = target: Guanidinoacetate N-methyltransferase (Homo sapiens) (UniProt Q14353); conditions: purified enzyme, MTase-Glo SAH luminescence; measured here: GAMT inhibition; at 40 µM; stronger effect = lower value
In short: as §1

[3] = target: Histamine N-methyltransferase (Homo sapiens) (UniProt P50135); conditions: purified enzyme, MTase-Glo SAH luminescence; measured here: HNMT inhibition; at 40 µM; stronger effect = lower value
In short: as §1

[4] = target: Nicotinamide N-methyltransferase (Homo sapiens) (UniProt P40261); conditions: purified enzyme, MTase-Glo SAH luminescence; measured here: NNMT inhibition; at 40 µM; stronger effect = lower value
In short: as §1

[5] = target: Phenylethanolamine N-methyltransferase (Homo sapiens) (UniProt P11086); conditions: purified enzyme, MTase-Glo SAH luminescence; measured here: PNMT inhibition; at 40 µM; stronger effect = lower value
In short: as §1
% is scaled to controls: 0 for no effect and ±100 for the full control effect.

SMILES	activity change, negative = inhibition [1] [%]	activity change, negative = inhibition [2] [%]	activity change, negative = inhibition [3] [%]	activity change, negative = inhibition [4] [%]	activity change, negative = inhibition [5] [%]
COCCNC(=O)CC[C@]12CC[C@](C)(O)C[C@H]1C(C)(C)C[C@@H]2NS(=O)(=O)c1ccc(C)cc1	-1.88	-0.794	-0.281	-2.77	0.524
COc1cccc(NC(=O)N2CCn3cccc3C2C(C)C)c1 (stereo not drawn)	7.54	0	0.637	-0.705	-0.119
CN(CC1Cc2ccccc2O1)C(=O)c1coc(COc2ccc3c(c2)OCO3)n1 (stereo not drawn)	-10.5	-7.21	-4.94	-20.3	-12.4
COc1cccc(CN2C(=O)c3nc4ccccc4n3CC2(C)C(=O)NC2CCCCC2)c1OC (stereo not drawn)	2.21	0	0.442	0.67	-3.13
CN1C(=O)C(CC(=O)N2CCC(C#N)CC2)(Cc2ccccc2)c2ccccc21 (stereo not drawn)	-0.208	-0.507	-1.69	2.81	1.76
Cc1cccc(C)c1OCC(N)C(C)C (stereo not drawn)	-20.8	3.84	1.47	-8.13	-1.4
O=C(NCc1cccs1)c1cc(C2CC2)nc2onc(C3CCCNC3)c12 (stereo not drawn)	-9.23	-7.44	-16.7	-19.9	-8.44
CCn1nc(C)cc1S(=O)(=O)N[C@H]1[C@H]2CCO[C@H]2[C@@H]1N1CCCCC1	-2.14	-2.46	-1.31	-0.795	-1.46
CC1(C)CC[C@]2(C(=O)O[C@@H]3O[C@H](CO[C@@H]4O[C@H](CO[C@@H]5O[C@H](CO)[C@H](O)[C@H](O)[C@H]5O)[C@@H](O)[C@H](O)[C@H]4O)[C@@H](O)[C@H](O[C@@H]4O[C@H](CO)[C@@H](O)[C@H](O)[C@H]4O)[C@H]3O)[C@H](O)C[C@]3(C)C(=CCC4[C@@]5(C)CC[C@H](O[C@@H]6OC[C@@H](O)[C@H](O)[C@H]6O)[C@@](C)(C(=O)O)C5CC[C@]43C)[C@@H]2C1 (stereo partly drawn)	-2.23	-7.14	3.81	-19.5	3.16
COc1ccc(-n2c(C)cc(CNS(=O)(=O)c3ccc4c(c3)oc(=O)n4C)c2C)cc1	-0.421	0	11.4	3.78	8.15
C=CCNC(=O)N[C@H]1[C@H](O)[C@@H](NCCOC)[C@@H]2OC[C@H]1O2	-0.582	0.084	2.49	-1.47	12.1
COc1cccc(CN2C(=O)c3cc4sccc4n3CC2(C)C(=O)NC2CCCCC2C)c1OC (stereo not drawn)	1.9	6.01	5.29	-6.19	-0.85
Cc1ccc(Cn2c(=O)c3ccccc3n3c(SCC(=O)Nc4cc(C)cc(C)c4)nnc23)cc1	5.45	1.89	10.5	0.717	6.52
C=CCC1(CO)CCCN(C(=O)CCCn2nc(C)cc2C)C1 (stereo not drawn)	-1.06	1.23	2.05	-3.68	-0.478
CN1CCOC(c2ccccc2)c2ccccc2C1 (stereo not drawn)	3.04	3.83	-9.24	-11.7	3.64
Cn1cc(C(=O)N2CCC(N(Cc3ccccc3)C3CCOCC3)CC2)cn1	-1.2	-1.83	0.393	2.07	0.532
Cc1ccc(Cn2nc3n(C)c(=O)c4ccc(C(=O)NC5CCCC5)cc4n3c2=O)cc1	-2.04	1.2	-3	-1.88	-0.693
CCCn1c(=O)c2cc(F)ccc2n2c(SCc3cc(C)ccc3C)nnc12	-13.9	2.58	0.989	-8.77	-3.15
C=C1CC2C(C)(CCC(=O)O)C(C(C)(C)O)CCC2(C)C2C(=O)OC(C)(C(=O)OC)C(=O)C12C (stereo not drawn)	-0.772	-7.31	-5.98	-18.6	-2.66

SMILES	activity change, negative = inhibition [1] [%]	activity change, negative = inhibition [2] [%]	activity change, negative = inhibition [3] [%]	activity change, negative = inhibition [4] [%]	activity change, negative = inhibition [5] [%]
CCOCCCNc1nc2c(S(=O)(=O)c3ccc(C)cc3)nnn2c2ccccc12	-9.01	-2.46	-5.76	-5.6	-11.6
CC(c1ccc(-c2cc(N3CCN(C)CC3)nc(N)n2)cc1)N1CCOCC1 (stereo not drawn)	-3.02	-0.952	-34.3	0.366	2.25
Cc1ccc(NC(=O)Cn2nc3n(CC(C)C)c(=O)c4ccc(C(=O)NCC(C)C)cc4n3c2=O)cc1C	2.03	0	2.9	3.12	2.75
COc1ccc(N2CCOCC2)c2sc(NC(=O)N3CCC(C)(O)CC3)nc12	-22.1	-7.94	-1.14	-18.4	-31.6
O=C1NC(=Nc2ccccc2F)S/C1=C\c1ccc(C(=O)O)cc1	-4.16	3.84	9.61	-10.6	4.71
O=C1CN(Cc2ccc(F)cc2Cl)S(=O)(=O)c2ccccc2N1Cc1ccccc1F	13.7	0.186	5.13	8.82	4.56
COc1ccc(CCN2CCCC(CN(C)Cc3cnc[nH]3)C2)cc1 (stereo not drawn)	-4	-2.53	-46.6	-8.78	-3.6
CCN1C(=O)c2cc3ccccc3n2CC1(C)C(=O)NCC(=O)NCCCOC (stereo not drawn)	-7.2	2.67	-1.97	-5.77	-5.31
CCOc1ccc(CNC(=O)c2cc3n(n2)CC(C)(C(=O)NC2CCCC2)N(CC)C3=O)cc1OC (stereo not drawn)	1.11	1.47	1.15	5.11	2.74
CCCNC(=O)c1cc2n(n1)CC(C)(C(=O)NC1CCCCC1)N(C)C2=O (stereo not drawn)	8.69	5.12	6.57	8.67	3.66
CC1(C(=O)NC2CCCCC2)Cn2nc(-c3cccs3)cc2C(=O)N1Cc1ccc2c(c1)OCO2 (stereo not drawn)	-1.77	4.56	0.664	5.17	0.071
CCCCNc1ccc(C(=O)OCCN(C)C)cc1	-4.3	8.2	6.48	-8.32	-4.12
CC(=O)Nc1ccc(-c2nnc3n(Cc4ccc(C)cc4)c(=O)c4ccccc4n23)cc1	-8.5	1.24	-3.05	0.505	-3.9
CC(C)Cn1c(=O)c2ccc(C(=O)NC3CCCC3)cc2n2c(=O)n(Cc3c(F)cccc3Cl)nc12	-1.79	4.59	2.54	1.25	1.8
CNC(=O)c1cn2c(n1)CN([S+](C)(=O)[O-])CC2	-0.054	-3.34	1.62	-2.41	-0.819
COCC1CN(C(C)=O)CC12CCN(C(=O)c1nn(C)c3ccccc13)CC2 (stereo not drawn)	-0.448	-1.18	2.52	-3.16	2.64
COc1ccc(NC(=O)c2ccc(-c3ccc(-c4noc(C)n4)cc3C)cc2)cc1N1CCN(C)CC1	-14	2.62	-14.1	-8.07	1.96
COc1cc(-c2onc(C)c2C(=O)NCCCOC(C)C)cc(OC)c1OC	2.19	3.23	4.51	-1.52	-0.835
CC(C)Oc1ccc(CNC(=O)C(C)n2ccc3cc(S(=O)(=O)N4CCCC4)ccc32)cc1 (stereo not drawn)	1.76	0.493	1.89	-4.31	-2.65

SMILES	activity change, negative = inhibition [1] [%]	activity change, negative = inhibition [2] [%]	activity change, negative = inhibition [3] [%]	activity change, negative = inhibition [4] [%]	activity change, negative = inhibition [5] [%]
CCCC1c2cccn2CCN1C(=O)Nc1ccc(F)cc1F (stereo not drawn)	-0.419	0.127	-39.8	4.89	4.49
CCCN1C(=O)c2cc(C(=O)NCCCN3CCOCC3)nn2CC1(C)C(=O)NC1CCCC1 (stereo not drawn)	7.66	0	6.34	5.6	3.99
CNC(=O)c1cc(C2CC2)nc2onc(C3CCN(C(=O)c4ccc(Cl)nc4)C3)c12 (stereo not drawn)	-5.06	-5.2	0.332	-12.9	5.12
Cc1cnc(Nc2ccc(F)cc2Cl)nc1-c1c[nH]c(C(=O)N[C@H](CO)c2cccc(Cl)c2)c1	-15.8	-24	-10.8	-40.6	-12.8
CC1(C(=O)NC2CCCCCC2)Cn2c(nc3ccccc32)C(=O)N1CC1CCCO1 (stereo not drawn)	-8.53	5.11	0.277	4.69	0.306
c1cc(OCCN2CCCCC2)cc(-c2n[nH]c3ccc(-c4ncn[nH]4)cc23)c1	-13.6	-6.6	-52.6	-31.4	-10.2
O=C(c1ccccc1OC(F)(F)F)N1CCC2(CC1)CC(O)CCO2 (stereo not drawn)	-1.85	-6.88	-3.84	3.15	-7.56
COc1cc(OC)c(N2C(=O)CSc3c(c4ccccc4n3C)C2C(=O)NCc2ccccc2)cc1Cl (stereo not drawn)	-5.31	5.05	0.04	0.107	-1.47
Cc1ccc(N2C(=O)c3cc4occc4n3CC2(C)C(=O)NC2CCCCC2)c(C)c1 (stereo not drawn)	3.16	0.207	6.63	15.2	1.97
Cc1cccc(CSc2nnc3n(CC(C)C)c(=O)c4cc(F)ccc4n23)c1	1.87	2.06	3.76	-4.92	6.34
CCCn1c(=O)c2ccc(C(=O)NC(C)CC)cc2n2c(=O)[nH]nc12 (stereo not drawn)	-7.25	1.32	-2.17	5.29	-12.9
CC1(C)CN(C(=O)COc2ccccc2)CC(=O)N(Cc2ccccc2)C1	-0.437	-3.23	1.02	-8.88	-10.9
CCCCCOC(=O)Nc1nc(=O)n([C@@H]2O[C@H](C)[C@@H](O)[C@H]2O)cc1F	–	4.5	–	-2.7	6.29
Cc1ccc(-c2n[nH]n3c2nc(=O)c2ccc(C(=O)NCc4ccccc4)cc23)cc1	-3.96	-6.42	-7.56	-8.7	-9.19
CCC(C(=O)N(C)Cc1ccc(OC)c2ncccc12)n1cccn1 (stereo not drawn)	-13.7	0.085	-2.27	-2.46	-1.15
Cc1ccccc1CN1C(=O)c2nc3ccccc3n2CC1(C)C(=O)NC1CCCC1 (stereo not drawn)	-2.59	-3.27	-0.37	-7.83	-3.43
CC(C)C[C@H](CC(=O)NO)C(=O)N[C@@H](Cc1ccc2ccccc2c1)C(=O)N[C@@H](C)C(=O)NCCN	3.4	11.6	4.83	-7.84	0.405
Cn1c(=O)c2ccc(C(=O)NC3CCCC3)cc2n2c(SCC(=O)c3ccccc3)nnc12	4.76	2	8.83	2.48	1.61
CC[C@H]1OC(=O)[C@](C)(F)C(=O)[C@H](C)[C@@H](O[C@@H]2O[C@H](C)C[C@H](N(C)C)[C@H]2O)[C@](C)(OC)C[C@@H](C)C(=O)[C@@H](C)[C@H]2N(CCCCn3cc(-c4cccc(N)c4)nn3)C(=O)O[C@]12C	4.5	11.4	5.42	-1.51	4.3

Source: PubChem BioAssay AID1745853 (National Center for Advancing Translational Sciences (NCATS), 2022)
